# Source: the supplement of paper PMC3334620
# The full ranking holds about 33,000 sequences; the median of “E-score (-0.5 to 0.5)” is about -0.01, and the highest 2% start at about 0.26. Some of the results follow.
# Biological target: Ste12 (UniProt P13574)
# Assay: PBM E-score (8-mer binding enrichment) (E-score (-0.5 to 0.5)); higher = stronger / more preferred TF binding; most listed sequences are background and not binding sites
# Settings: protein concentration: 200 nM; construct: GST-DNA-binding domain
# In short: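 Using PURExpress in vitro transcription/translation, GST-tagged yeast transcription factors were made in full-length or DNA-binding-domain form. These were applied at about 100-200 nM to double-stranded universal all-10-mer Agilent arrays, and bound protein was detected with fluorescent anti-GST. Scans were normalised with masliner before the Universal PBM Analysis Suite assigned E-scores to ungapped eight-base words pooled with their reverse complements.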
row,Sequence,PBM E-score
1,GACAGTGC,-0.0356
2,CGAGGAAG,0.0593
3,AGTGCGTA,-0.174
4,GAAGGATC,-0.181
5,ACCACGTA,-0.194
6,GGACAGAC,-0.123
7,CGCGACAC,0.133
8,ATAGGCGG,0.0245
9,CGCTTCCA,-0.0876
10,GTTTGGAA,0.217
11,ATTTTACC,0.277
12,GGAGCGCA,-0.293
13,CAAGTTAC,0.0412
14,CCTTTCAG,-0.115
15,CCTTATGA,0.0898
16,CAAGCAAG,0.0543
17,AATGTTAA,0.102
18,AGACCGCA,-0.0945
19,ACTGCGAT,-0.072
20,CACCGACC,-0.116
21,AATGTCTA,-0.119
22,TTGCAAAA,0.242
23,GGAGATCC,-0.168
24,AACATATA,0.105
25,AGGGCTGG,-0.185

row,Sequence,PBM E-score
1,CTAAGTTC,-0.152
2,CGGGGGGA,-0.188
3,GACCCGTC,-0.0556
4,AGAGTTCA,-0.222
5,CATTTGGA,0.0569
6,CTCGGAGC,0.119
7,AACCTACT,0.125
8,CAAAAAGA,0.178
9,CGTTAGGC,-0.0275
10,ACCCAGAG,-0.0365
11,CTACGACA,-0.0604
12,CCCGCCAG,0.0464
13,CATTTCCG,0.195
14,AAGGGTGC,-0.0793
15,TAGTCTCA,0.0995
16,ACCCCACA,0.119
17,AGGCGCGA,0.101
18,GCTTCCCC,-0.00673
19,ATCAACCC,0.168
20,TCAAGGGA,-0.179
21,ATTACCGC,0.204
22,GTCACTAA,0.0793
23,CCTGGCAA,-0.0699
24,GGCCTCGA,-0.0449
25,AGCTCCAA,0.0117

row,Sequence,PBM E-score
1,CAACGTTA,0.0893
2,GACGGGGC,0.105
3,AATTCACA,0.113
4,CTACACAC,-0.0103
5,AATAAGCG,0.0163
6,CCCGTAGC,-0.258
7,ATACTATG,0.11
8,ACATGCTG,-0.141
9,GGGGGCCA,-0.242
10,ATTACTAA,0.143
11,ACCCATTC,0.0137
12,CGTGCAGC,0.0121
13,ATAATGGA,0.132
14,ACACAACC,0.0246
15,GTCAGAAA,0.179
16,CATGATTC,0.023
17,GGCAAGTA,0.044
18,AATAAAAC,0.245
19,CCTAGGCG,-0.165
20,TTACTAAA,0.186
21,GTATTCCA,0.0531
22,CGAAGTGC,0.0362
23,CACACGCG,0.186
24,CCGGACGA,-0.0191
25,CCTTCAGA,-0.125

row,Sequence,PBM E-score
1,AGCGCTAG,-0.0146
2,CTACCTCA,0.123
3,CATGTCCG,-0.234
4,ACGCAAGG,-0.151
5,AGACCGGG,-0.133
6,CCCGGGCA,0.118
7,CTCGAATC,-0.0397
8,TACCGGCA,-0.0901
9,AGGGTTGA,0.0511
10,AAATCCTT,-0.063
11,CACCGGTC,-0.171
12,CAGTAGGA,-0.0478
13,ATAACAGA,0.115
14,ACCGACTG,-0.132
15,AACAAAAC,0.236
16,CCCGTTCC,-0.0483
17,AAACTTAA,0.298
18,AGTTAGGG,-0.121
19,GAGTCCCA,0.00079
20,ATTACGAC,0.0587
21,ACACAAGA,0.182
22,CACAAACA,0.107
23,CTACATTA,0.0935
24,AGAACACC,0.00242
25,CCATTAGA,-0.125

row,Sequence,PBM E-score
1,ATCTAATG,0.0365
2,ATGTTAGG,0.133
3,AGAAGTCT,-0.197
4,GAGATTCC,0.134
5,AATCTTCC,-0.0551
6,AGATTTGA,0.226
7,GCGCCCTA,-0.12
8,ATCTTTCA,0.202
9,AGTCTTGC,-0.158
10,GGGGTTCA,-0.0134
11,AGTCCAAC,-0.22
12,AATAAGTA,0.132
13,CCGGTCGC,-0.0319
14,GCCCAGAC,-0.161
15,CCTGAAAA,0.0508
16,ATAGTGAT,-0.019
17,GTGTACGA,-0.116
18,ACAAGCAC,-0.0849
19,AAAAAGTG,0.195
20,AAGTGTAG,0.0553
21,CGGTCCGA,-0.0887
22,ACTCTTAC,0.0185
23,AATTGAAG,0.07
24,AGAAGCGC,0.0778
25,ACTAGGAG,-0.0207

row,Sequence,PBM E-score
1,TAGAAAGA,0.0083
2,AATAGGAG,-0.148
3,GACGCAGC,-0.258
4,GCCGTGGA,-0.0955
5,CATTTATA,0.189
6,CGACACTA,0.0711
7,AGAACAAC,-0.0745
8,CTGGTTCA,-0.0394
9,CATACCCA,0.0548
10,AGGGGACG,-0.0137
11,AAGCCCTT,-0.252
12,GGGATCAA,0.0375
13,GACGGACA,-0.0913
14,AGCCTTAT,0.0824
15,GAGAGAGC,-0.13
16,CGGCCGAA,0.00393
17,CGGTGGAG,0.0491
18,CTCAAGCC,-0.11
19,AGCATACA,0.0213
20,GGTAGCAC,-0.365
21,GTTTCGGA,0.334
22,GAATGCGA,0.0116
23,CTATCCAG,-0.13
24,AGTAGCTA,0.0841
25,CCTCCCAG,-0.0668

row,Sequence,PBM E-score
1,CACAACGC,0.0782
2,AGGCCGTG,-0.0524
3,AAGTAATT,0.136
4,ATTATTTC,0.25
5,ACCCTCAA,-0.0731
6,GGGACCCA,-0.0901
7,AATTTCCG,0.211
8,ATATCAGG,-0.0467
9,ATCCTTGA,-0.117
10,CGAGATGC,-0.0585
11,CACGCGCA,-0.0337
12,AATAGCTG,-0.184
13,GGTGGGAA,0.127
14,CCTCCGCC,-0.109
15,ATTTCAAA,0.272
16,ACGACTGA,-0.0689
17,AGTAGGCG,-0.256
18,CTATAGTA,-0.0984
19,CAACTCGA,0.0314
20,TGAAACCA,0.438
21,CGCCATGA,-0.06
22,TACTGTAA,0.0391
